In the supplement of paper PMC10126150 one finds switch fluorescence ratio data, which are given here for 67 sequences.

Sequences with one replicate were seen in a single cluster, so their values are uncertain.

The data set has as its system ATP. In words: switch fluorescence ratio, 500 uM ATP over buffer (Cy3 cluster intensity, sum of 5 cycles each) (fold (ratio)); higher = stronger signal-on switching upon ATP binding; sequences stand for … in TCGTCGGCAGCGTCAGATGTGTATAAGAGACAGTTTTTTTTTTTTTTTTTTTTTTTTT…TC. The note with it: aptamer strand: ATP DNA aptamer (quencher-CACCTGGGGGAGTATTGCGGAGGAAGG + anchor), 100 nM annealed; ATP concentration: 500 uM; one replicate. In short, it runs like this: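 Cy3-labelled switching-strand clusters on a modified Illumina MiSeq flow-cell were annealed to 100 nM quencher-labelled ATP aptamer, imaged in selection buffer, then imaged after 15 min with 500 uM ATP at 22 °C. Five buffer/ATP cycles ran, with NaOH stripping and re-annealing between them. The fluorescence ratio is summed target-cycle over summed buffer-cycle Cy3 intensity per cluster, averaged per switch-domain sequence. Clusters outside 100-1000 RFU were excluded.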
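Also: ATP exposure 15 min at 22 °C before imaging.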

For the sequence ACTTCAACGA, the switch fluorescence ratio amounted to 1.08.

Regarding GATACCATCG, the switch fluorescence ratio worked out at 1.

On to TTCCGTCGT, for which the switch fluorescence ratio amounted to 1.04.

As to AGGCCCAGCA, the switch fluorescence ratio stood at 1.01.

As to CATGATCCAA, the switch fluorescence ratio was 1.01.

For the sequence TTTAATTTAA, the switch fluorescence ratio stood at 1.04.

Consider AGACTATAC, for which the switch fluorescence ratio was 1.56.

In the case of GATGTATCGA, the switch fluorescence ratio amounted to 0.976.

As to ACCGGCCGTG, the switch fluorescence ratio came to 1.

For GGCATCTAAC, the switch fluorescence ratio turned out to be 1.02.

Regarding CGGGCGAAGA, the switch fluorescence ratio came out at 0.982.

ATGGACAGAC: the switch fluorescence ratio was found to be 1.16.

Consider CTTTAATTAA, for which the switch fluorescence ratio stood at 1.02.

Consider GGAACTTTGG, for which the switch fluorescence ratio stood at 0.989.

GCACGGCTGG: the switch fluorescence ratio is 1.04.

On to CAGGTCAGCC, for which the switch fluorescence ratio amounted to 1.17.

For CACTCGAGAT, the switch fluorescence ratio was found to be 0.975.

For the sequence ATATTTGATG, the switch fluorescence ratio came out at 1.01.

Regarding CAGCCGACGG, the switch fluorescence ratio came out at 1.05.

For CAGGTTTTCA, the switch fluorescence ratio was found to be 1.01.

On to CTGGGGGG, for which the switch fluorescence ratio worked out at 1.02.

GGAAAGGCCT: the switch fluorescence ratio amounted to 0.984.

Take TTGCTAGTGA: the switch fluorescence ratio is 0.996.

As to GTAAATCTAA, the switch fluorescence ratio amounted to 0.945.

In the case of ACAAAGACAA, the switch fluorescence ratio is 1.01.

In the case of AAGTTCTTAT, the switch fluorescence ratio stood at 1.02.

On to CAGGGAGTCG, for which the switch fluorescence ratio was 1.05.

As to GATTTCGAC, the switch fluorescence ratio came to 0.997.

As for CTGGGTATCA, the switch fluorescence ratio was 0.964.

With TCATTAGTTC, the switch fluorescence ratio was found to be 0.992.

Regarding TGGTACTTGG, the switch fluorescence ratio was determined as 0.994.

As for CGGGACGCCA, the switch fluorescence ratio worked out at 1.03.

Regarding AACGGGAGCG, the switch fluorescence ratio came to 0.941.

With GTTTTTGCAG, the switch fluorescence ratio amounted to 0.983.

For CACGAGCGG, the switch fluorescence ratio is 1.03.

As to TATGTAGGCC, the switch fluorescence ratio was determined as 1.39.

Consider TTAGAGGTGC, for which the switch fluorescence ratio amounted to 1.06.

In the case of CTGGCGGGCG, the switch fluorescence ratio is 1.07.

Turning to CAATTACGT, the switch fluorescence ratio is 1.1.

As for AAGCATAGGC, the switch fluorescence ratio was determined as 1.12.

For TGATTGACGC, the switch fluorescence ratio was 0.995.

As to TAGTTGAGTA, the switch fluorescence ratio worked out at 0.966.

For AATTGCGAGT, the switch fluorescence ratio was 0.978.

On to TTGTATTGCA, for which the switch fluorescence ratio amounted to 0.997.

In the case of GGAAATCGCC, the switch fluorescence ratio came to 1.05.

In the case of GTTTTGAGAT, the switch fluorescence ratio was found to be 1.01.

With TTTGGGCCCT, the switch fluorescence ratio worked out at 0.956.

Turning to CCGGATGTGC, the switch fluorescence ratio was 1.51.

In the case of GGCGTGAAGT, the switch fluorescence ratio came out at 0.965.

For TATAGAAGTG, the switch fluorescence ratio was 0.993.

For TCTCGATATG, the switch fluorescence ratio is 1.01.

On to CAGATCGAAT, for which the switch fluorescence ratio was determined as 0.988.

For ATATGACGAT, the switch fluorescence ratio came to 1.05.

In the case of TGGGGCTGCT, the switch fluorescence ratio stood at 1.

For the sequence CCTAGAACTT, the switch fluorescence ratio came to 1.05.

Regarding TAGTCGATAT, the switch fluorescence ratio came out at 1.08.

TAACTGGGG: the switch fluorescence ratio is 0.97.

With TTTGTTCAAC, the switch fluorescence ratio came to 0.983.

In the case of GACTAAAAAT, the switch fluorescence ratio came out at 1.03.

On to TAGTTTTCGA, for which the switch fluorescence ratio was 1.02.

Take GCCGTGCCAG: the switch fluorescence ratio amounted to 1.03.

Consider GGGGAGTACG, for which the switch fluorescence ratio was 0.999.

With GATGCGGCAT, the switch fluorescence ratio turned out to be 1.03.

Regarding CGGGCAAAC, the switch fluorescence ratio came to 3.72.

Regarding CCAGTCCTTC, the switch fluorescence ratio is 1.05.

Take CTCTGACCAG: the switch fluorescence ratio was found to be 1.01.

For ACTTTGTTTG, the switch fluorescence ratio was determined as 1.02.
